From paper PMC4336329 (PLoS ONE, 2015)
The campaign covered roughly 310,000 compounds. About 2,200 (0.71%) showed an effect of 50% or more. Effects have a minus sign here. Some of the results follow.

Biological target: human ether-à-go-go-related gene (hERG) potassium channel (human, UniProt Q12809)
Experiment: primary screen, population patch clamp on CHO cells stably expressing hERG

Sequence of human ether-à-go-go-related gene (hERG) potassium channel (Q12809 whole entry, looked up): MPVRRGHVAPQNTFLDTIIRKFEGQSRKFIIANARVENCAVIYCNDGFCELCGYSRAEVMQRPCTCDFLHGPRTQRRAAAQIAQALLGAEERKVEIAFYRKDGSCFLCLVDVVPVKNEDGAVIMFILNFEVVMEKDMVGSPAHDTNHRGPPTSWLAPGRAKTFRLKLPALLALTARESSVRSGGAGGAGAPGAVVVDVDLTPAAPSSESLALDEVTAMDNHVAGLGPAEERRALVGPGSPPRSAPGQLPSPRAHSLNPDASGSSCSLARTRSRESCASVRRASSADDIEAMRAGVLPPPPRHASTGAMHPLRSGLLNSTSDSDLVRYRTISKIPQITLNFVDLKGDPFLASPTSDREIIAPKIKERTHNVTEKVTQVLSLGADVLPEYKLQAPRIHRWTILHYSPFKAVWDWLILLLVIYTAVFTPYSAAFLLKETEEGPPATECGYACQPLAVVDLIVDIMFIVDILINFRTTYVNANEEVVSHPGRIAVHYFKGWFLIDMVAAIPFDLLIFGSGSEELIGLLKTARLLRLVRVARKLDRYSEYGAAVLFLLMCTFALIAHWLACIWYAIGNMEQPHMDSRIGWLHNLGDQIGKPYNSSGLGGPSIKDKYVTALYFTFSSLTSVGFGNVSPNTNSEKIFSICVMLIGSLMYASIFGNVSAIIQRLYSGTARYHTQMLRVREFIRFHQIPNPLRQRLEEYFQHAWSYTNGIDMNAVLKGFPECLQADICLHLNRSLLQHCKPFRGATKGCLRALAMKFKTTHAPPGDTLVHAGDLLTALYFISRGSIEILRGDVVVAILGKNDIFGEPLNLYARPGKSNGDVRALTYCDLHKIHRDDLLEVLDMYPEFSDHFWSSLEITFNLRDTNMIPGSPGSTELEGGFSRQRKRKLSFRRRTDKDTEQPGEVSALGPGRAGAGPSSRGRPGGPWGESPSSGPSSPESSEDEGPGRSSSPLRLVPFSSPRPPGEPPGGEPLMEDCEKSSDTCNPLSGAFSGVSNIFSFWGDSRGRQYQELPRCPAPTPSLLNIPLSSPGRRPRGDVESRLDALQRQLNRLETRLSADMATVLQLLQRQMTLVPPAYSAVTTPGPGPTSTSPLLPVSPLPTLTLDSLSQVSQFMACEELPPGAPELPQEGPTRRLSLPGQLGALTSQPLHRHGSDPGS

Structure (SMILES) | hERG current change (%, negative = inhibition) at 1uM [%]
O=C1C=C(Nc2cccc(O)c2)CC(c2ccco2)C1 (stereo not shown) | 2.89
Cc1ccc(S(=O)(=O)N[C@@H](CC(C)C)C(=O)N2CCC(C(=O)N[C@@H](Cc3ccccc3)C(=O)O)CC2)cc1 | 10.8
Cc1onc(-c2ccccc2Cl)c1C(=O)NC(=S)Nc1ccccc1C(N)=O | 7.18
CCOC(=O)c1ccc(NC(=S)NCCCN2CCN(C3CCCCC3)CC2)cc1 | -2.46
O=C(NC(=S)NNC(=O)c1ccccc1[N+](=O)[O-])c1ccc(Br)cc1 | 15.2
CCc1nc(SCc2ccc(OCC(C)C)cc2)n[nH]1 | 7.29
O=C(Cc1ccccc1)NNC(=O)C1CCN(c2ncccn2)CC1 | 7.9
Cl.O=C(OCCN1CCCCC1)c1cccc(F)c1 | 5.77
CCOc1ccc(-n2c(SCC(=O)Nc3ccc(CC)cc3)nc3n[nH]c(C)c3c2=N)cc1 | 7.85
CCOc1ccccc1N(C)S(=O)(=O)c1ccc2[nH]cc(C(=O)N(CCOC)CCOC)c(=O)c2c1 | 1.98
O=C(COC(=O)c1cccc(O)c1)Nc1ccc(S(=O)(=O)N2CCOCC2)cc1 | 8.4
Nc1ccccc1C(O)(Cc1ccccc1)c1ccccc1 (stereo not shown) | 13.6
CCCCC(=O)Nc1ccc(C(=O)Nc2ccc(S(=O)(=O)Nc3nccc(C)n3)cc2)cc1 | 12.5
CNc1ccccc1NC(=O)C1CCCN1C(=O)OCc1ccccc1 (stereo not shown) | 0.618
CN(C(=O)Nc1ccc(Cl)cc1)c1c2c(nn1C)CCCC2 | 11.9
Cn1c(=O)c(C(=O)CN2CCCc3ccccc32)c(N)n(Cc2ccccc2)c1=O | 19.5
O=C(NCCCl)Nc1ccc(Cl)c([N+](=O)[O-])c1 | 5.53
C#Cc1ccc([C@@H]2C=C(C(=O)O)O[C@H](OCC)[C@H]2CCCO)cc1 | 19.9
Cc1ccccc1CSc1nnc(NC(=O)C2COc3ccccc3O2)s1 (stereo not shown) | 1.07
COC(=O)c1cc(NC(=O)C2(S(=O)(=O)c3ccc(Cl)cc3)CC2)cc(C(=O)OC)c1 | -5.65
CCOc1ccc(S(=O)(=O)c2c[nH]c3ccccc3c2=O)cc1 | 8.01
COc1cccc(/C=N/NC(=O)CNC(=O)c2ccco2)c1O | 9.7

Structure (SMILES) | hERG current change (%, negative = inhibition) at 1uM [%]
CC1Oc2ccccc2N(CC(=O)NC2CCCC2)C1=O (stereo not shown) | 12
COc1ccccc1N1CCN(C(=O)c2cc(-c3ccc(Cl)cc3)on2)CC1 | 5.86
O=C(NCc1ccccc1)c1ccc(COCC(F)(F)F)o1 | -0.584
C=CCNC(=O)CSc1cc([N+](=O)[O-])cc(S(=O)(=O)Cc2ccccc2)c1 | -5.51
O=C(Nc1ccc2c(c1)OCO2)N1CCN(c2ccccc2Cl)CC1 | 7.93
Cc1[nH]c2ccc(O)cc2c1CCN.O=C([O-])/C=C\C(=O)[O-] | 15.6
CCCS(=O)(=O)N1CCN(C(=O)c2cccc(OC)c2)CC1 | 4.07
COc1ccc(C2N=C(Nc3ccc(C)cc3)Nc3nc(C)cc(=O)n32)cc1 (stereo not shown) | 15
CCCc1cc(NCCN(C)C)n2c(nc3ccccc32)c1C#N | 7.99
CCCS(=O)(=O)N1CCN(Cc2ccncc2)CC1.O=C(O)C(=O)O | 9.18
S=C(Nc1ccccc1)N1CCN(C/C=C/c2ccccc2)CC1 | -2.07
CCOC(=O)C1(Cc2ccccc2C)CCCN(S(=O)(=O)c2cccnc2)C1 (stereo not shown) | 9.61
NNC(=O)c1ccc(CN2C(=O)c3cccc4cccc2c34)cc1 | 2.68
O=C(CSc1nnc(-c2ccccc2)c(-c2ccccc2)n1)NCc1ccco1 | -4.49
Cc1cccc(NC(=O)CSC(N)=O)c1C | 13.6
O=C(NC(=S)Nc1ccc(Cl)c(C(=O)O)c1)c1cncc(Br)c1 | 16.2
Cn1cccc1/C=C1\C(=O)NC(=O)N(Cc2ccccc2)C1=O | 10
COc1ccc(/C=C(/NC(=O)c2ccccc2)c2nc3ccccc3[nH]2)cc1OC | 0.582
CCOC(=O)c1nnn(-c2nonc2N)c1COc1ccc(F)cc1 | -7.97
CC(C)(C)c1nc2scc(-c3ccc(Br)cc3)c2c(=O)o1 | 9.4
CC1(C)OC(=O)C(=CNc2ccccn2)C(=O)O1 | 2.23
CC(C)CC(CO)N1CCN(C(=O)c2ccc(Cl)cc2)CCC1=O (stereo not shown) | -0.496

Structure (SMILES) | hERG current change (%, negative = inhibition) at 1uM [%]
O=C(CNS(=O)(=O)c1ccc2c(c1)OCCCO2)N1CCN(Cc2ccccc2)CC1 | 12.2
C/C(=C\c1ccccc1)C(=O)Nc1ccc(S(=O)(=O)Nc2ncccn2)cc1 | 10.9
Cn1cc(S(=O)(=O)Nc2ccc(OC(F)(F)F)cc2)c(=O)n(C)c1=O | 14.5
COc1cc(CC(=O)NC(c2ccccc2)c2ccccc2)cc(OC)c1OC | 13.5
CC(C)(C)C(=O)Nc1ccc(C(=O)N/N=C/c2ccccc2OC(=O)c2ccc(Cl)cc2Cl)cc1 | 7.9
CCOC(=O)C1=CN(Cc2ccc(OC)cc2)C=C(C(=O)OCC)C1c1cccs1 | 12.4
COC(=O)C1C(=O)/C(=C/N(C)C)C(=O)CC1(C)C (stereo not shown) | 8.87
CN1CCN(C(c2ccc(Br)cc2)c2cc(Cl)c3cccnc3c2O)CC1 (stereo not shown) | 6.2
N=c1oc2ccc3ccccc3c2cc1-c1nnc2n1CCCCC2 | 5.57
O=C(O)C1CC=CCC1C(=O)NCCc1ccccc1 (stereo not shown) | 14.8
CC1CN(Cc2ccccc2)c2nc3c(c(=O)n(C)c(=O)n3C)n2C1 (stereo not shown) | -16.8
Cc1ccc(C(=O)Nc2ccc(C)c(S(=O)(=O)N(C)C)c2)s1 | 8.91
CCN(CC)S(=O)(=O)c1ccc(N2CCN(C)CC2)c(NC(=O)CSCC(=O)Nc2cccc(C)c2)c1 | 7.65
CCN1CCN(c2ccc(S(=O)(=O)N3CCOCC3)cc2NC(=O)/C=C/c2ccc(OC)c(OC)c2)CC1 | 21.9
COc1cc(OC)cc(C(=O)NCC(=O)NCCN2C(=O)S/C(=C\c3ccccc3Cl)C2=O)c1 | 4.11
CC1(C)CC(=O)C(C(c2cccnc2)C2C(=O)CC(C)(C)CC2=O)C(=O)C1 | 2.02
Cc1c(NC(=O)c2cccs2)cccc1NC(=O)c1cccs1 | 5.14
CCOc1ccc(-n2c([S-])c(C(=O)Nc3ccc(S(=O)(=O)N4CCOCC4)cc3)[n+]3cc(C(N)=O)ccc23)cc1 | 12.1
Cc1cccc(C)c1NC(=O)CS(=O)CC(=O)Nc1ccc(F)cc1F (stereo not shown) | 22.2
CCOc1ccc(S(=O)(=O)NCc2ccccc2)cc1C(N)=O | 23.3
O=C(c1cc(N2C(=O)C3C4CCC(C4)C3C2=O)ccc1Cl)N1CCN(c2ccccc2)CC1 (stereo not shown) | 8.36
CCc1ccc(OCC(=O)NNC(=O)c2cc(S(=O)(=O)N3CCOCC3)ccc2N2CCCC2)cc1 | 1.63

Structure (SMILES) | hERG current change (%, negative = inhibition) at 1uM [%]
CN(C)c1ccc(/C=N/NC(=O)CN(c2ccccc2Cl)S(C)(=O)=O)cc1Br | 1.98
O=C(Nc1cccnc1)c1cc(-c2ccccc2O)on1 | 11.3
COc1ccc(-c2nc(C#N)c(NCC3CCCO3)o2)cc1OC (stereo not shown) | 7.63
CSCCC(NC(=O)c1ccccc1)C(=O)NCC(C)(C)N1CCOCC1 (stereo not shown) | 8.1
Cc1cccc(NC(=S)N2CCC(C(=O)c3ccc(F)cc3)CC2)c1C | 12.2
CCOC(=O)C1C(=O)N(C(=O)c2cncc(Br)c2)CC1c1ccccc1 (stereo not shown) | 8.46
CN(NC(=O)c1ccc(Cl)cc1)c1nc(-c2ccccc2)nnc1C(F)(F)F | 9.79
Cc1c(C(=O)N2CCCCC2)oc2ccc(S(=O)(=O)N3CC(C)CC(C)C3)cc12 (stereo not shown) | 12.4
COCCn1c(=S)[nH]c2cc(C(=O)N3CCc4ccccc4C3)ccc2c1=O | 11.9
O=C(c1ccco1)N1CCN(C(=O)c2ccc(CS(=O)c3cccc(Cl)c3)o2)CC1 (stereo not shown) | 8.79
CCCc1nc2oc3c(NCCN(C)C)ncnc3c2c2c1CCCC2 | 3.67
Cc1ccc(Oc2ccc(C=O)cn2)cc1 | 3.41
COc1cccc(CN2C(=O)Nc3ccccc3C(=O)N2C(C)(C)C)c1 | 12.3
CN1CCN(C(=O)N(c2ccccc2)c2ccccc2)CC1.Cl | 13.5
Cc1cc(=O)n2[nH]c(N)c(N=Nc3ccccc3F)c2n1 | 8.75
Cc1nc2ccc(S(=O)(=O)NC(C(=O)Nc3nccs3)C(C)C)cc2s1 (stereo not shown) | 3.93
C[N+]1(C)[C@@H]2CC[C@H]1CC(OC(=O)[C@@H](CO)c1ccccc1)C2.[I-] (stereo partly shown) | 14
CC1CCc2c(sc3nc(C4CC4)nc(N4CCN(C(=O)c5ccco5)CC4)c23)C1 (stereo not shown) | 7.31
COc1ccccc1NS(=O)(=O)c1cc(NC(=O)c2cccs2)ccc1N1CCCCC1 | 12.6
